{
  "source": "paper PMC4336329",
  "about": "(PLoS ONE, 2015)",
  "note": "Screen size: about 310,000 compounds; about 2,200 (0.71%) showed an effect of 50% or more. Effects have a minus sign here. The list shows a part of the results.",
  "data": [
    {"molecular_target": "human ether-à-go-go-related gene (hERG) potassium channel (human, UniProt Q12809)", "sequence (Q12809 whole entry, looked up)": "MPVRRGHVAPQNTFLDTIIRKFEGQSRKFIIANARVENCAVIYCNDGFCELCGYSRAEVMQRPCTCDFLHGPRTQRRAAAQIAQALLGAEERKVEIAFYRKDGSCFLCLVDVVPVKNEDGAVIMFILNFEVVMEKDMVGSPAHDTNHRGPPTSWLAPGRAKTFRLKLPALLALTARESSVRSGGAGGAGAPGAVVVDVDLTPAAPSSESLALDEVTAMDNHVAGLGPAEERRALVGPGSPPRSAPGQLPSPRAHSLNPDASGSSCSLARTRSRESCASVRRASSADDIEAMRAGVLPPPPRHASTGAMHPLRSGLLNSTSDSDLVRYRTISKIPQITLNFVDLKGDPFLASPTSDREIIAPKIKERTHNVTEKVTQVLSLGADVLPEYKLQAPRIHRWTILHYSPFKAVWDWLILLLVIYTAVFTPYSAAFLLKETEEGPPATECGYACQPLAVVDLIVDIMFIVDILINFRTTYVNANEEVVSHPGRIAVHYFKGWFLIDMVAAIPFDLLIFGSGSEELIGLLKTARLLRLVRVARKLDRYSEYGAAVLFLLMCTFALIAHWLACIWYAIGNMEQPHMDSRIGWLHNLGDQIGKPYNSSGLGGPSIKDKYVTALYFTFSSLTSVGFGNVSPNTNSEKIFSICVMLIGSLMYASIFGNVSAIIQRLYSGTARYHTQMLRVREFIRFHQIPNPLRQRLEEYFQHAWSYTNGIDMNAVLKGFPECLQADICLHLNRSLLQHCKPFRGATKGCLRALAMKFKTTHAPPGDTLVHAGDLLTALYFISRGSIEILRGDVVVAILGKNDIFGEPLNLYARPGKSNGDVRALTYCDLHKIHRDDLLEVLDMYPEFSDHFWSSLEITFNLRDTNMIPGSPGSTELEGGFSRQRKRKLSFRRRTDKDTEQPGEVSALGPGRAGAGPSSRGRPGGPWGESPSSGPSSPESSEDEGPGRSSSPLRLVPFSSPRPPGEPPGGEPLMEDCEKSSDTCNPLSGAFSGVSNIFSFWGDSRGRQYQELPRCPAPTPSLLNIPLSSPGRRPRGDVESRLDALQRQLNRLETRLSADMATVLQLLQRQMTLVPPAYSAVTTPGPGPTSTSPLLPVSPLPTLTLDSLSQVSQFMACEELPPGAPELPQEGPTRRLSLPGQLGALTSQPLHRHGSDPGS", "assay": "primary screen, population patch clamp on CHO cells stably expressing hERG", "units": {"hERG current change (%, negative = inhibition) at 1uM": "%"}, "values": [
      {"smiles": "COc1ccc(NC(=O)C2CCCN2S(=O)(=O)c2ccc(F)cc2)cc1", "note": "(stereo not drawn)", "hERG current change (%, negative = inhibition) at 1uM": -5.53},
      {"smiles": "O=C(NCC1CCCO1)c1cccc(Oc2c(Cl)cccc2[N+](=O)[O-])c1", "note": "(stereo not drawn)", "hERG current change (%, negative = inhibition) at 1uM": 11.2},
      {"smiles": "C=CCn1c(SCc2ccc3c(c2)OCO3)nc2scc(-c3ccco3)c2c1=O", "hERG current change (%, negative = inhibition) at 1uM": 0.0433},
      {"smiles": "COc1ccc(CC(=S)NCCc2ccccc2)cc1", "hERG current change (%, negative = inhibition) at 1uM": 13.9},
      {"smiles": "Clc1nc(CN2CCCCC2)nc2sc3c(c12)CCCC3", "hERG current change (%, negative = inhibition) at 1uM": 7.88},
      {"smiles": "COCCn1c(C)cc(/C=C2/SC(=O)N(CC(=O)N3CCCC3)C2=O)c1C", "hERG current change (%, negative = inhibition) at 1uM": 4.46},
      {"smiles": "CCOP(=O)(OCC)c1nc(/C=C/c2ccccc2)oc1NCc1ccc(OC)cc1", "hERG current change (%, negative = inhibition) at 1uM": 5.31},
      {"smiles": "COc1ccccc1NS(=O)(=O)c1c(C(=O)N2CCCC2)c(C)n(C)c1C", "hERG current change (%, negative = inhibition) at 1uM": 14.8},
      {"smiles": "O=C(COc1ccc2c3c(c(=O)oc2c1)CCCC3)NCCN1CCOCC1", "hERG current change (%, negative = inhibition) at 1uM": 13.8},
      {"smiles": "COc1ccccc1NC(=O)c1oc2ccc(C)cc2c1C", "hERG current change (%, negative = inhibition) at 1uM": 12.2},
      {"smiles": "Cc1csc(C2=C(O)CN(CCc3ccccc3)C2=N)n1", "hERG current change (%, negative = inhibition) at 1uM": 9.82},
      {"smiles": "CC(CN1CCCC1)C(=O)NN", "note": "(stereo not drawn)", "hERG current change (%, negative = inhibition) at 1uM": -6.67},
      {"smiles": "COc1ccc(/C(C)=N/NC(=O)c2ccc(CSc3cccc4cccnc34)cc2)cc1OC", "hERG current change (%, negative = inhibition) at 1uM": 5.99},
      {"smiles": "NC(=S)Nc1cccc2[nH]ncc12", "hERG current change (%, negative = inhibition) at 1uM": 8.75},
      {"smiles": "C[C@H](NC(=O)c1nc[nH]c1C(=O)N1CC[NH2+]CC1)C(=O)OCc1ccccc1.[Cl-]", "hERG current change (%, negative = inhibition) at 1uM": 18.2},
      {"smiles": "COc1ccc(CNC(=O)C2CCN(S(=O)(=O)c3ccc4c(c3)CC(C)N4C(C)=O)CC2)cc1", "note": "(stereo not drawn)", "hERG current change (%, negative = inhibition) at 1uM": 18.7},
      {"smiles": "Cc1ccc(-c2cc(C(=O)N3CCOCC3)c3ccccc3n2)cc1", "hERG current change (%, negative = inhibition) at 1uM": -11.7},
      {"smiles": "CCOc1cc(N2CCOCC2)c(OCC)cc1NC(=O)CSc1nccc(C)n1", "hERG current change (%, negative = inhibition) at 1uM": 1.03},
      {"smiles": "CCC1CCCCN1CCCNC(=O)Cn1cnc2sc(C)c(S(=O)(=O)N3CCC(C)CC3)c2c1=O", "note": "(stereo not drawn)", "hERG current change (%, negative = inhibition) at 1uM": 6.27},
      {"smiles": "CCCc1c(C(=O)N/N=C/c2ccco2)nnn1-c1nonc1N", "hERG current change (%, negative = inhibition) at 1uM": 17.6},
      {"smiles": "O=C(c1nc2ccccn2c1CN1CCN(c2ccccc2O)CC1)N1CCCC1", "hERG current change (%, negative = inhibition) at 1uM": 26},
      {"smiles": "CCN(CC)CCN1C(=O)C(=O)/C(=C(/O)c2c(C)[nH]c(C(=O)OC)c2C)C1c1ccccc1OC", "note": "(stereo not drawn)", "hERG current change (%, negative = inhibition) at 1uM": 16.7},
      {"smiles": "c1coc(CNCCCN2CCOCC2)c1", "hERG current change (%, negative = inhibition) at 1uM": 7.99},
      {"smiles": "O=C(CCSc1ccccc1)Nc1nnc(-c2ccccc2)o1", "hERG current change (%, negative = inhibition) at 1uM": 8.16}
    ]}
  ]
}
